Experimental data as given in article PMC6656915, “The MmpL3 interactome reveals a complex crosstalk between cell envelope biosynthesis and cell elongation and division in mycobacteria” (Scientific Reports, 2019).
No constants are given. Whether binding was seen depends on the method and setting. Some results given as binding are weak or reduced against the parent protein; the word gives no strength. Tags and fused reporters may be left off the sequences shown.

Protein sequences, listed by entry. Tags and fused reporters are not part of them.
UniProt P9WFS5: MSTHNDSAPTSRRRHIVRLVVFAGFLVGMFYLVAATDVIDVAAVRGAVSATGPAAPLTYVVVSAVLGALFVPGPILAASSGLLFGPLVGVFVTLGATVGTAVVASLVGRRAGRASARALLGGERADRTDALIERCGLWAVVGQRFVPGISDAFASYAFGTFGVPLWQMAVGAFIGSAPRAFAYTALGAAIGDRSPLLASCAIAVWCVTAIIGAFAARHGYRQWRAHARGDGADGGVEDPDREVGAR
UniProt I6X7F2: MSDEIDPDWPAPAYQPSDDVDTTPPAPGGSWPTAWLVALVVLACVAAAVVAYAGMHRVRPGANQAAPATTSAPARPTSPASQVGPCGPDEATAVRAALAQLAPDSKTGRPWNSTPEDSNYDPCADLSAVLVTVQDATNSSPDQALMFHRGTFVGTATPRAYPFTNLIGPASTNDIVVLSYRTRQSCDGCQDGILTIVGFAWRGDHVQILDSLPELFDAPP

Assays:
[1] = target: T1, MmpL3 (full-size), T18/T25 fusion (M. tuberculosis) (UniProt P9WJV5); assay: two-hybrid
T1 sequence: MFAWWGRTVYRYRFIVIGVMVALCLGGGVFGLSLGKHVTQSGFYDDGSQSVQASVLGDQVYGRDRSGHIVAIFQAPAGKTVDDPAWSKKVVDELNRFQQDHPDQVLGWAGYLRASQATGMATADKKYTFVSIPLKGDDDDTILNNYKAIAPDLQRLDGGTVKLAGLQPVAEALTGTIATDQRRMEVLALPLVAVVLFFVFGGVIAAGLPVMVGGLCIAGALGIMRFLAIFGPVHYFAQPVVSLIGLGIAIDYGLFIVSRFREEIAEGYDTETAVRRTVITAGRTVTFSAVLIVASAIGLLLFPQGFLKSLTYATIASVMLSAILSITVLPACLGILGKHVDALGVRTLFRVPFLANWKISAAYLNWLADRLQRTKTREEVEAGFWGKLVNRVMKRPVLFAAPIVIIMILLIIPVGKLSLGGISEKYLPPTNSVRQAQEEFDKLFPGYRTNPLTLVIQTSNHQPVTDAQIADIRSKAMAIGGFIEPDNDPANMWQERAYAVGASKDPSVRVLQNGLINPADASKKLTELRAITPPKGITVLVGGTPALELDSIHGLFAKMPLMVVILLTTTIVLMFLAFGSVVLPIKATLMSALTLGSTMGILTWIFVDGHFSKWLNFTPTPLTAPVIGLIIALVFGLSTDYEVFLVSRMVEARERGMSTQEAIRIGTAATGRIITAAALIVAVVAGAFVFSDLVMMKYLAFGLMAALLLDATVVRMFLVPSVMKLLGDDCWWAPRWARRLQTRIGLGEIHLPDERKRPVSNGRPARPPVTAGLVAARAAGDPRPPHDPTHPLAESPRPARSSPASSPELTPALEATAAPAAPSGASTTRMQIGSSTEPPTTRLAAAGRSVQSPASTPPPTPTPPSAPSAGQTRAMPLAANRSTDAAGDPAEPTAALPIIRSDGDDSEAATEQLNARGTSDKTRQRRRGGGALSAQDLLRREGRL

[2] = target: MmpL3tb^1–744, T18/T25 fusion (M. tuberculosis) (UniProt P9WJV5); assay: two-hybrid
[3] = target: T2, MmpL3 from M. tuberculosis, C-terminally hexahistidine-tagged, purified (M. tuberculosis) (UniProt P9WJV5); assay: BLI; Bio-layer interferometry; data not shown; both purified
T2 sequence: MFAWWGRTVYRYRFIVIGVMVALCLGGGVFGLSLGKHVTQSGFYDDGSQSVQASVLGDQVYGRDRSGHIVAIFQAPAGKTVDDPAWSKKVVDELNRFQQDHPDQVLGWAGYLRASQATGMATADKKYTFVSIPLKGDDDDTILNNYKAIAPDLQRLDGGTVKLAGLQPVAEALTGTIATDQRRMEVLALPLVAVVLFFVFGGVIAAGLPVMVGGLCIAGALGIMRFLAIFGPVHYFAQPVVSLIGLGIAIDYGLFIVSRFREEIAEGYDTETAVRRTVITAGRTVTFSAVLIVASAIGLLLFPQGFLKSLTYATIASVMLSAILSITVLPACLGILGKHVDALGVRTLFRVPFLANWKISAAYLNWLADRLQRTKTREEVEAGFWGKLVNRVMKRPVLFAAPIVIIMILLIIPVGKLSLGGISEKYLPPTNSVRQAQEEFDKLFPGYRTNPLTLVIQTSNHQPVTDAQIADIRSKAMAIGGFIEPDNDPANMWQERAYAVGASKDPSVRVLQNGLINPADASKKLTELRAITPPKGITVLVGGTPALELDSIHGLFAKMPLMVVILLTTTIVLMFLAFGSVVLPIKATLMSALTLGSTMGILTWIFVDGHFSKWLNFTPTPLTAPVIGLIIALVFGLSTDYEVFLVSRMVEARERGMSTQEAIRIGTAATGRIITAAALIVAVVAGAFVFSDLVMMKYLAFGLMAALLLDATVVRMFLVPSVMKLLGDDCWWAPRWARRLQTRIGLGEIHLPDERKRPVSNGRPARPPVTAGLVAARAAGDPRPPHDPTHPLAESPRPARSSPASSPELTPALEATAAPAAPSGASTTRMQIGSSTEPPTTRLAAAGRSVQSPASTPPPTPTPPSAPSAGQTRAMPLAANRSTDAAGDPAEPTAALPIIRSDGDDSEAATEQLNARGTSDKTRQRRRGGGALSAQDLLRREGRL

[4] = target: T2, MmpL3 from M. tuberculosis, C-terminally hexahistidine-tagged, purified (M. tuberculosis); assay: SPR; MmpL3 immobilised on CM5 chip; analytes injected at increasing concentrations (0.6 to 10 μM for AftD, Rv0207c, CrgA), 10 μL/min for 30 sec, 180 sec dissociation; 25 °C; 20 mM HEPES pH 7.4, 150 mM NaCl, 0.2% Triton X-100 (0.03% DDM instead for AftD); 1:1 model; both purified
[5] = target: T3, MmpL3 protein from M. tuberculosis, C-terminally hexahistidine-tagged, devoid of gfp fusion (M. tuberculosis) (UniProt P9WJV5); assay: SPR; MmpL3 immobilised on CM5 chip; analytes injected at two-fold increasing concentrations from 0.6 µM up to 10 µM, 10 µL/min for 30 sec, dissociation 180 sec, 25 °C; 20 mM HEPES pH 7.4, 150 mM NaCl, 0.2% Triton X-100 (0.03% DDM instead for AftD); global fit to the 1:1 Langmuir binding model; both purified
T3 sequence: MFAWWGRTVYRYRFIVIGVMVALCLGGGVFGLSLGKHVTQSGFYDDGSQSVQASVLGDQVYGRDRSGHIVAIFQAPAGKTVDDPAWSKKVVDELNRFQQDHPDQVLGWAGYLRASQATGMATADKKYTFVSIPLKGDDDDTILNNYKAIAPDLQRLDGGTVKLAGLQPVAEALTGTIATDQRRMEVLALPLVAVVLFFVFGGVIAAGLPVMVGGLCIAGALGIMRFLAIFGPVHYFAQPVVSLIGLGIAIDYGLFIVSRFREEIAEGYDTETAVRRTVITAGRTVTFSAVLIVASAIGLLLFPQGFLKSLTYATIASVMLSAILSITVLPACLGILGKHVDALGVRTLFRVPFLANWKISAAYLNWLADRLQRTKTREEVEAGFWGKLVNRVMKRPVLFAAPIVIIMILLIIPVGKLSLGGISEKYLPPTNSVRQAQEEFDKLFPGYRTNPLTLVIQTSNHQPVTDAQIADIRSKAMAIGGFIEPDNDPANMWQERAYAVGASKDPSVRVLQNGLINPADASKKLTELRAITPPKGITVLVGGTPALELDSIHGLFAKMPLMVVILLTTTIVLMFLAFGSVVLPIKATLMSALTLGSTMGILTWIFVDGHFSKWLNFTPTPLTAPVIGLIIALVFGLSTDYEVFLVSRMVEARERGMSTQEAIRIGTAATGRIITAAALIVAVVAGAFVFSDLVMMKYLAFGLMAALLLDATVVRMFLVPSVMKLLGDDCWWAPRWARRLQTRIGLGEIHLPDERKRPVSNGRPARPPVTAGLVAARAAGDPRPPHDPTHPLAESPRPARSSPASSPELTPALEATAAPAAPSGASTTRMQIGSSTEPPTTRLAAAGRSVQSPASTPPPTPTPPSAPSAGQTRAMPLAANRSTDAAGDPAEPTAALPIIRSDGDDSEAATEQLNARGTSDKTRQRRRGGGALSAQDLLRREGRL

Molecule	binding [1]	binding [2]	binding [3]	binding [4]	binding [5]
Rv0625c, T18/T25 fusion (from UniProt P9WFS5 1-246)	binds	binds	–	–	–
Rv3483c, T18/T25 fusion (from UniProt I6X7F2 1-220)	binds	binds	–	–	–
MmpL3tb^1–744, T18/T25 fusion (from UniProt P9WJV5 1-744) (domain or fragment)	binds	binds	–	–	–
MT2653, T18/T25 fusion (from UniProt Q8VJF5 1-48)	binds	binds	–	–	–
Rv2169c, T18/T25 fusion (from UniProt O53503 1-134)	binds	binds	–	–	–
Rv1457c, T18/T25 fusion (from UniProt O86349 1-261)	binds	binds	–	–	–
FadD32, T18/T25 fusion (protein, UniProt O53580 1-637) MFVTGESGMAYHNPFIVNGKIRFPANTNLVRHVEKWAKVRGDKLAYRFLDFSTERDGVARDILWSDFSARNRAVGARLQQVTQPGDRVAILCPQNLDYLISFFGALYSGRIAVPLFDPAEPGHVGRLHAVLDDCAPSTILTTTDSAEGVRKFIRARSAKERPRVIAVDAVPTEVAATWQQPEANEETVAYLQYTSGSTRIPSGVQITHLNLPTNVVQVLNALEGQEGDRGVSWLPFFHDMGLITVLLASVLGHSFTFMTPAAFVRRPGRWIRELARKPGETGGTFSAAPNFAFEHAAVRGVPRDDEPPLDLSNVKGILNGSEPVSPASMRKFFEAFAPYGLKQTAVKPSYGLAEATLFVSTTPMDEVPTVIHVDRDELNNQRFVEVAADAPNAVAQVSAGKVGVSEWAVIVDADTASELPDGQIGEIWLHGNNLGTGYWGKEEESAQTFKNILKSRISESRAEGAPDDALWVRTGDYGTYFKDHLYIAGRIKDLVIIDGRNHYPQDLECTAQESTKALRVGYAAAFSVPANQLPQTVFDDSHAGLKFDPEDTSEQLVIVGERAAGTHKLDHQPIVDDIRAAIAVGHGVTVRDVLLVSAGTIPRTSSGKIGRRACRAAYLDGSLRSGVGSPTVFATSD	no binding	–	–	–	–
Rv0207c, T18/T25 fusion (protein, UniProt P96389 1-242) MSLTEDVTSQTSESLARHSVLAEDLSQDGLTSLGAPGARVLLVWDAPNLDMGLGSILGRRPTALERPRFDALGRWLLARTAEIVAGRPGISTEPEATVFTNIAPGSAEVVRPWVDALRNVGFAVFAKPKVDEDSDVDRDMLAHIDERYREGLAALVVASADGQAFRQPLEAVARSGTPVQVLGFREHASWALASDTLEFVDLEDIAGVFREPLPRIGLDSLPEQGAWLQPFRPLSSLLTSRV	binds	binds	–	–	–
Rv0207c from M. tuberculosis H37Rv, C-terminal hexahistidine tag, purified (protein, UniProt P96389 1-242) MSLTEDVTSQTSESLARHSVLAEDLSQDGLTSLGAPGARVLLVWDAPNLDMGLGSILGRRPTALERPRFDALGRWLLARTAEIVAGRPGISTEPEATVFTNIAPGSAEVVRPWVDALRNVGFAVFAKPKVDEDSDVDRDMLAHIDERYREGLAALVVASADGQAFRQPLEAVARSGTPVQVLGFREHASWALASDTLEFVDLEDIAGVFREPLPRIGLDSLPEQGAWLQPFRPLSSLLTSRV	–	–	binds	binds	–
LprC devoid of its first 21 amino acids, with N-terminal hexahistidine tag (domain or fragment, UniProt A5U1X3 22-180) TKSISGTAVKAGGAGVPRNNNSQERYPNLLKECEVLTTDILAKTVGADPLDIQSTFVGAICRWQAANPAGLIDITRFWFEQGSLSNERKVAEGLKYQVETRAIQGVDSIVMRTGDPNGACGVASDAAGVVGWWVNPQAPGIDACGQAIKLMELTLATNA	–	–	–	–	no binding (tested: 10 µM)
MmpL3 (full-size), T18/T25 fusion (protein, UniProt P9WJV5 1-944) MFAWWGRTVYRYRFIVIGVMVALCLGGGVFGLSLGKHVTQSGFYDDGSQSVQASVLGDQVYGRDRSGHIVAIFQAPAGKTVDDPAWSKKVVDELNRFQQDHPDQVLGWAGYLRASQATGMATADKKYTFVSIPLKGDDDDTILNNYKAIAPDLQRLDGGTVKLAGLQPVAEALTGTIATDQRRMEVLALPLVAVVLFFVFGGVIAAGLPVMVGGLCIAGALGIMRFLAIFGPVHYFAQPVVSLIGLGIAIDYGLFIVSRFREEIAEGYDTETAVRRTVITAGRTVTFSAVLIVASAIGLLLFPQGFLKSLTYATIASVMLSAILSITVLPACLGILGKHVDALGVRTLFRVPFLANWKISAAYLNWLADRLQRTKTREEVEAGFWGKLVNRVMKRPVLFAAPIVIIMILLIIPVGKLSLGGISEKYLPPTNSVRQAQEEFDKLFPGYRTNPLTLVIQTSNHQPVTDAQIADIRSKAMAIGGFIEPDNDPANMWQERAYAVGASKDPSVRVLQNGLINPADASKKLTELRAITPPKGITVLVGGTPALELDSIHGLFAKMPLMVVILLTTTIVLMFLAFGSVVLPIKATLMSALTLGSTMGILTWIFVDGHFSKWLNFTPTPLTAPVIGLIIALVFGLSTDYEVFLVSRMVEARERGMSTQEAIRIGTAATGRIITAAALIVAVVAGAFVFSDLVMMKYLAFGLMAALLLDATVVRMFLVPSVMKLLGDDCWWAPRWARRLQTRIGLGEIHLPDERKRPVSNGRPARPPVTAGLVAARAAGDPRPPHDPTHPLAESPRPARSSPASSPELTPALEATAAPAAPSGASTTRMQIGSSTEPPTTRLAAAGRSVQSPASTPPPTPTPPSAPSAGQTRAMPLAANRSTDAAGDPAEPTAALPIIRSDGDDSEAATEQLNARGTSDKTRQRRRGGGALSAQDLLRREGRL	binds	–	–	–	–
CrgA, T18/T25 fusion (protein, UniProt P9WP57 1-93) MPKSKVRKKNDFTVSAVSRTPMKVKVGPSSVWFVSLFIGLMLIGLIWLMVFQLAAIGSQAPTALNWMAQLGPWNYAIAFAFMITGLLLTMRWH	binds	binds	–	–	–
CrgA from M. tuberculosis H37Rv, C-terminal hexahistidine tag, purified (protein, UniProt P9WP57 1-93) MPKSKVRKKNDFTVSAVSRTPMKVKVGPSSVWFVSLFIGLMLIGLIWLMVFQLAAIGSQAPTALNWMAQLGPWNYAIAFAFMITGLLLTMRWH	–	–	binds	binds	–
